Laboratory results reported in the supplement of paper PMC9588766.
Structures can show the parent of a compound that is named as a salt. Over roughly 1,900 compounds, “cell viability of compound + 1 nM pemigatinib relative to pemigatinib-only (DMSO) wells” has its median near 0.95; the lowest 2% begin near 0.22. This is one part of the list.

Each compound was assayed on PDC-DUC18828 (assay: cell viability of compound + 1 nM pemigatinib relative to pemigatinib-only (DMSO) wells (fraction); PDC-DUC18828 is a patient-derived cholangiocarcinoma cell line; higher = less growth inhibition). Conditions: first compound 1 µM; pemigatinib concentration 1 nM; 72 h.
Description: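 Selleck Bioactive library screen in the patient-derived FGFR2 fusion-positive ICC cell line PDC-DUC18828 (500 cells/well). Each compound was tested at 1 uM with 1 nM pemigatinib, in triplicate, for 72 h. Viability was read by CellTiter-Glo and normalised to plate DMSO controls. Value is the paper's averaged normalised viability.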

| Structure (SMILES) | cell viability |
| --- | --- |
| CC(C)N(CCCNC(=O)Nc1ccc(C(C)(C)C)cc1)C[C@H]1O[C@@H](n2cc(Br)c3c(N)ncnc32)[C@H](O)[C@@H]1O + CCN1C(=O)N(c2c(F)c(OC)cc(OC)c2F)Cc2cnc3[nH]c(CN4CCOCC4)cc3c21 [pemigatinib] | 0.957 |
| CC(C)(C)C(=O)C(Oc1ccc(Cl)cc1)n1ccnc1 (stereo not given) [Climbazole] + CCN1C(=O)N(c2c(F)c(OC)cc(OC)c2F)Cc2cnc3[nH]c(CN4CCOCC4)cc3c21 [pemigatinib] | 1.02 |
| CCCCNc1cc(C(=O)O)cc(S(N)(=O)=O)c1Oc1ccccc1 [Bumetanide] + CCN1C(=O)N(c2c(F)c(OC)cc(OC)c2F)Cc2cnc3[nH]c(CN4CCOCC4)cc3c21 [pemigatinib] | 1.04 |
| C[C@H](Cn1cnc2c(N)ncnc21)OCP(=O)(O)O [Tenofovir] + CCN1C(=O)N(c2c(F)c(OC)cc(OC)c2F)Cc2cnc3[nH]c(CN4CCOCC4)cc3c21 [pemigatinib] | 0.974 |
| O=c1ccn([C@@H]2O[C@H](CO)[C@@H](O)[C@H]2O)c(=O)[nH]1 [Uridine] + CCN1C(=O)N(c2c(F)c(OC)cc(OC)c2F)Cc2cnc3[nH]c(CN4CCOCC4)cc3c21 [pemigatinib] | 0.97 |
| CC(C)n1c(/C=C/C(O)CC(O)CC(=O)O)c(-c2ccc(F)cc2)c2ccccc21 (stereo not given) [Fluvastatin Sodium] + CCN1C(=O)N(c2c(F)c(OC)cc(OC)c2F)Cc2cnc3[nH]c(CN4CCOCC4)cc3c21 [pemigatinib] | 0.811 |
| Cc1ccnc(NS(=O)(=O)c2ccc(N)cc2)n1 [Sulfamerazine] + CCN1C(=O)N(c2c(F)c(OC)cc(OC)c2F)Cc2cnc3[nH]c(CN4CCOCC4)cc3c21 [pemigatinib] | 0.864 |
| NC(=O)OCC(COC(N)=O)c1ccccc1 [Felbamate] + CCN1C(=O)N(c2c(F)c(OC)cc(OC)c2F)Cc2cnc3[nH]c(CN4CCOCC4)cc3c21 [pemigatinib] | 0.988 |
| CCC[S+]([O-])c1ccc2[nH]c(NC(=O)OC)nc2c1 (stereo not given) [Albendazole Oxide] + CCN1C(=O)N(c2c(F)c(OC)cc(OC)c2F)Cc2cnc3[nH]c(CN4CCOCC4)cc3c21 [pemigatinib] | 0.951 |
| COC(=O)Nc1ccc(-c2nc(N3CCOCC3)c3cnn(C4CCN(C(=O)OC)CC4)c3n2)cc1 + CCN1C(=O)N(c2c(F)c(OC)cc(OC)c2F)Cc2cnc3[nH]c(CN4CCOCC4)cc3c21 [pemigatinib] | 0.955 |
| COC(=O)N[C@H](C(=O)N[C@@H](Cc1ccccc1)[C@@H](O)CN(Cc1ccc(-c2ccccn2)cc1)NC(=O)[C@@H](NC(=O)OC)C(C)(C)C)C(C)(C)C [Atazanavir Sulfate] + CCN1C(=O)N(c2c(F)c(OC)cc(OC)c2F)Cc2cnc3[nH]c(CN4CCOCC4)cc3c21 [pemigatinib] | 1 |
| CNC[C@H](O)[C@@H](O)[C@H](O)[C@H](O)CO [Meglumine] + CCN1C(=O)N(c2c(F)c(OC)cc(OC)c2F)Cc2cnc3[nH]c(CN4CCOCC4)cc3c21 [pemigatinib] | 1.01 |
| O=c1cc(-c2ccccc2)oc2cc(O)c(O)c(O)c12 [Baicalein] + CCN1C(=O)N(c2c(F)c(OC)cc(OC)c2F)Cc2cnc3[nH]c(CN4CCOCC4)cc3c21 [pemigatinib] | 1 |
| COc1cc(C2Oc3cc([C@H]4Oc5cc(O)cc(O)c5C(=O)[C@@H]4O)ccc3OC2CO)ccc1O (stereo not given in full) [Silibinin] + CCN1C(=O)N(c2c(F)c(OC)cc(OC)c2F)Cc2cnc3[nH]c(CN4CCOCC4)cc3c21 [pemigatinib] | 0.976 |
| COc1cc(C2Oc3cc([C@H]4Oc5cc(O)cc(O)c5C(=O)[C@@H]4O)ccc3OC2CO)ccc1O (stereo not given in full) [Silymarin] + CCN1C(=O)N(c2c(F)c(OC)cc(OC)c2F)Cc2cnc3[nH]c(CN4CCOCC4)cc3c21 [pemigatinib] | 0.938 |
| O=C(O)Cc1cccc(OCCCN(Cc2cccc(C(F)(F)F)c2Cl)CC(c2ccccc2)c2ccccc2)c1 + CCN1C(=O)N(c2c(F)c(OC)cc(OC)c2F)Cc2cnc3[nH]c(CN4CCOCC4)cc3c21 [pemigatinib] | 1.02 |
| CC(=O)N[C@@H](CS)C(=O)O [Acetylcysteine] + CCN1C(=O)N(c2c(F)c(OC)cc(OC)c2F)Cc2cnc3[nH]c(CN4CCOCC4)cc3c21 [pemigatinib] | 1.1 |
| C[C@]1(c2nc3c(C(N)=O)cccc3[nH]2)CCCN1 [Veliparib (ABT-888)] + CCN1C(=O)N(c2c(F)c(OC)cc(OC)c2F)Cc2cnc3[nH]c(CN4CCOCC4)cc3c21 [pemigatinib] | 1.03 |

| Structure (SMILES) | cell viability |
| --- | --- |
| O=C1CCC[C@@H]2[C@H]3CCC[N+]4([O-])CCC[C@@H](CN12)[C@@H]34 (stereo not given in full) [Oxymatrine] + CCN1C(=O)N(c2c(F)c(OC)cc(OC)c2F)Cc2cnc3[nH]c(CN4CCOCC4)cc3c21 [pemigatinib] | 0.974 |
| COc1cccc2cc(-c3nc([C@H]4CC[C@H](C(=O)O)CC4)n4ncnc(N)c34)[nH]c12 + CCN1C(=O)N(c2c(F)c(OC)cc(OC)c2F)Cc2cnc3[nH]c(CN4CCOCC4)cc3c21 [pemigatinib] | 0.241 |
| Clc1ccc(C(Cn2ccnc2)OCc2ccc(Sc3ccccc3)cc2)c(Cl)c1 (stereo not given) [Fenticonazole Nitrate] + CCN1C(=O)N(c2c(F)c(OC)cc(OC)c2F)Cc2cnc3[nH]c(CN4CCOCC4)cc3c21 [pemigatinib] | 0.928 |
| CC[C@H](C)C(=O)O[C@H]1C[C@@H](C)C=C2C=C[C@H](C)[C@H](CC[C@@H]3C[C@@H](O)CC(=O)O3)[C@H]21 [Lovastatin] + CCN1C(=O)N(c2c(F)c(OC)cc(OC)c2F)Cc2cnc3[nH]c(CN4CCOCC4)cc3c21 [pemigatinib] | 0.986 |
| CCN(CC)CCOC(=O)c1ccc(N)cc1 [Procaine HCl] + CCN1C(=O)N(c2c(F)c(OC)cc(OC)c2F)Cc2cnc3[nH]c(CN4CCOCC4)cc3c21 [pemigatinib] | 0.953 |
| CC(=O)O[C@H]1C[C@@H]2CC[C@@H]3[C@H](CC[C@@]4(C)[C@H]3C[C@H]([N+]3(C)CCCCC3)[C@@H]4OC(C)=O)[C@@]2(C)C[C@@H]1N1CCCCC1 [Vecuronium Bromide] + CCN1C(=O)N(c2c(F)c(OC)cc(OC)c2F)Cc2cnc3[nH]c(CN4CCOCC4)cc3c21 [pemigatinib] | 1.09 |
| Cn1nnc(-c2ccc3c(c2)[nH]c2nc(Cc4ccccc4)nc(NC4CCC(N)CC4)c23)n1 (stereo not given) + CCN1C(=O)N(c2c(F)c(OC)cc(OC)c2F)Cc2cnc3[nH]c(CN4CCOCC4)cc3c21 [pemigatinib] | 0.875 |
| C[C@@H](O)[C@H]1C(=O)N2C(C(=O)O)=C(S[C@@H]3CN[C@H](C(=O)N(C)C)C3)[C@H](C)[C@H]12 [Meropenem] + CCN1C(=O)N(c2c(F)c(OC)cc(OC)c2F)Cc2cnc3[nH]c(CN4CCOCC4)cc3c21 [pemigatinib] | 1.02 |
| CCN(CC)C(=O)/C(C#N)=C/c1cc(O)c(O)c([N+](=O)[O-])c1 [Entacapone] + CCN1C(=O)N(c2c(F)c(OC)cc(OC)c2F)Cc2cnc3[nH]c(CN4CCOCC4)cc3c21 [pemigatinib] | 0.873 |
| C[C@@H]1O[C@@H](OC[C@H]2O[C@@H](Oc3c(-c4ccc(OCCO)c(OCCO)c4)oc4cc(OCCO)cc(O)c4c3=O)[C@H](O)[C@@H](O)[C@@H]2O)[C@H](O)[C@H](O)[C@H]1O [Troxerutin] + CCN1C(=O)N(c2c(F)c(OC)cc(OC)c2F)Cc2cnc3[nH]c(CN4CCOCC4)cc3c21 [pemigatinib] | 0.954 |
| CC1(C)O[C@@H]2C[C@H]3[C@@H]4CCC5=CC(=O)CC[C@]5(C)[C@@]4(F)[C@@H](O)C[C@]3(C)[C@]2(C(=O)CCl)O1 [Halcinonide] + CCN1C(=O)N(c2c(F)c(OC)cc(OC)c2F)Cc2cnc3[nH]c(CN4CCOCC4)cc3c21 [pemigatinib] | 0.86 |
| C[C@]12C=CC(=O)C=C1CC[C@H]1[C@@H]3C[C@@H](O)[C@](O)(C(=O)CO)[C@@]3(C)C[C@H](O)[C@@]12F [Triamcinolone] + CCN1C(=O)N(c2c(F)c(OC)cc(OC)c2F)Cc2cnc3[nH]c(CN4CCOCC4)cc3c21 [pemigatinib] | 0.894 |
| N#Cc1ccc(COC[C@H]2O[C@@H](n3c(NCc4ccc(Cl)c(Cl)c4)nc4c(N)ncnc43)[C@H](O)[C@@H]2O)cc1 + CCN1C(=O)N(c2c(F)c(OC)cc(OC)c2F)Cc2cnc3[nH]c(CN4CCOCC4)cc3c21 [pemigatinib] | 0.88 |
| Cc1coc2c1C(=O)C(=O)c1c-2ccc2c1CCCC2(C)C [Tanshinone IIA] + CCN1C(=O)N(c2c(F)c(OC)cc(OC)c2F)Cc2cnc3[nH]c(CN4CCOCC4)cc3c21 [pemigatinib] | 0.986 |
| CCc1c(O)cc(O)c(C(=O)c2ccc(OCCN3CCOCC3)c(OC)c2)c1CC(=O)N(CCOC)CCOC + CCN1C(=O)N(c2c(F)c(OC)cc(OC)c2F)Cc2cnc3[nH]c(CN4CCOCC4)cc3c21 [pemigatinib] | 0.649 |
| CNCCCC12CCC(c3ccccc31)c1ccccc12 [Maprotiline HCl] + CCN1C(=O)N(c2c(F)c(OC)cc(OC)c2F)Cc2cnc3[nH]c(CN4CCOCC4)cc3c21 [pemigatinib] | 0.929 |
| CC[C@H]1OC(=O)C[C@@H](O)[C@H](C)[C@@H](O[C@@H]2O[C@H](C)[C@@H](O)[C@H](N(C)C)[C@H]2O)[C@@H](CCN2C[C@H](C)C[C@H](C)C2)C[C@@H](C)C(=O)/C=C/C(C)=C/[C@@H]1CO[C@@H]1O[C@H](C)[C@@H](O)[C@@H](OC)[C@H]1OC [Tilmicosin] + CCN1C(=O)N(c2c(F)c(OC)cc(OC)c2F)Cc2cnc3[nH]c(CN4CCOCC4)cc3c21 [pemigatinib] | 0.985 |
